Sequences and labels used below:
B1: TPR 5TU (parent)
chain: GGAUCUUCUCGAUCUAACAAAAAAGACAAAUCUGCCACAAAGCUUGAGAGCAUCUUCGGAUGCAGAGGCGGCAGCCUUCGGUGGCGCGAUAGCGCCAACGUUCUCAACUAUGACACGCAAAACGCGUGCUCCGUUGAAUGGAGUUUAUCAUG

Results on 83 variants are retold here after the RNAGym collection of RNA variant scans (doi:10.1073/pnas.2313332121).

Variants at the background level are over-represented here.

The variants in this data set derive from B1. Briefly: polymerase ribozyme fitness, log enrichment relative to wild type (log ratio); higher = more active; in vitro selection for triplet polymerase activity. The method, boiled down: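 The heterodimeric triplet polymerase ribozyme's subunits were each mutagenized into PCR-built libraries and transcribed. Every library was selected once, in triplicate, by annealing with a biotinylated primer, the partner subunit and triplets, incubating frozen at −7 °C, gel-excising extended constructs, capturing on streptavidin beads and running RT-PCR. Input and output libraries were Illumina-sequenced, with genotypes kept only at ≥10 input reads and ≥1 read per output. Fitness, from inverse-variance-weighted replicate averages, is the base-2 logarithm of genotype enrichment over wild-type enrichment.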
With A49G C85U G117U U135C G143C, the “polymerase ribozyme fitness (log ratio)” value was -4.06.

G48U C79A G88A A107G A113C G117A: the “polymerase ribozyme fitness (log ratio)” value was at most -4.2.

As to G50A A52U C85A C87A G88U A91G G140A, the “polymerase ribozyme fitness (log ratio)” value is at most -4.2.

Turning to G50A C93U A142U, the “polymerase ribozyme fitness (log ratio)” value is -3.71.

As to A49U G50A A60C C75G, the “polymerase ribozyme fitness (log ratio)” value was at most -4.2.

For A49G C85A A115G G140U A150G, the “polymerase ribozyme fitness (log ratio)” value was at most -4.2.

On to A49U G141A, for which the “polymerase ribozyme fitness (log ratio)” value was -1.34.

As for A49U U77C, the “polymerase ribozyme fitness (log ratio)” value is at most -4.2.

For the variant A49C G50A C54U C96A G136A, the “polymerase ribozyme fitness (log ratio)” value was at most -4.2.

A49U U55A G74U G92C U104G: the “polymerase ribozyme fitness (log ratio)” value was at most -4.2.

G50A A66C U111G A113U G124U U139C: the “polymerase ribozyme fitness (log ratio)” value is at most -4.2.

Turning to A49C C87A C99U G117U C118U A142U, the “polymerase ribozyme fitness (log ratio)” value was at most -4.2.

As for G50A G62C A73G U102A U146C, the “polymerase ribozyme fitness (log ratio)” value was at most -4.2.

Turning to G50A C93G, the “polymerase ribozyme fitness (log ratio)” value was at most -4.2.

As to A49U U56A C87A A120C A137C, the “polymerase ribozyme fitness (log ratio)” value was at most -4.2.

For the variant A49G U53A G100C A119U C132A U134A G143U, the “polymerase ribozyme fitness (log ratio)” value was at most -4.2.

As for A49G U53C A98U A121G, the “polymerase ribozyme fitness (log ratio)” value was -1.87.

Take G50A G62A C75U A97C C105G: the “polymerase ribozyme fitness (log ratio)” value is at most -4.2.

In the case of G48C U77G U144A, the “polymerase ribozyme fitness (log ratio)” value was at most -4.2.

With A49U G84U A97G C114G, the “polymerase ribozyme fitness (log ratio)” value was at most -4.2.

Consider A49C U77G A89U A110G C116U, for which the “polymerase ribozyme fitness (log ratio)” value is at most -4.2.

Regarding A49U A52G G94A C105U C114U C118G G140A G143C, the “polymerase ribozyme fitness (log ratio)” value was at most -4.2.

As for A49C C54A G68A C116G, the “polymerase ribozyme fitness (log ratio)” value is at most -4.2.

Take A49C U146G: the “polymerase ribozyme fitness (log ratio)” value was at most -4.2.

For A49G G86C A107C C125A, the “polymerase ribozyme fitness (log ratio)” value is at most -4.2.

A49C A122G A142C: the “polymerase ribozyme fitness (log ratio)” value is at most -4.2.

On to A49U U77C C93A G124C, for which the “polymerase ribozyme fitness (log ratio)” value was at most -4.2.

For the variant G50A A64U A91U U101A, the “polymerase ribozyme fitness (log ratio)” value was at most -4.2.

Regarding G50A C85A, the “polymerase ribozyme fitness (log ratio)” value is -3.59.

A49C A64U G67U G68A G71A: the “polymerase ribozyme fitness (log ratio)” value is at most -4.2.

For the variant G50A C51G G83U G84A G141U, the “polymerase ribozyme fitness (log ratio)” value is at most -4.2.

With G50A A73U U77G A91U C96U, the “polymerase ribozyme fitness (log ratio)” value was at most -4.2.

Turning to A49U C57U C93G C103G U144C, the “polymerase ribozyme fitness (log ratio)” value was at most -4.2.

For A49C G50U U78G C85U A97G U102G A107U A142C, the “polymerase ribozyme fitness (log ratio)” value was at most -4.2.

As to G50A C51U A52U G94U U134A, the “polymerase ribozyme fitness (log ratio)” value is at most -4.2.

As to G50A U56A G70A C96U G143C C149U, the “polymerase ribozyme fitness (log ratio)” value was at most -4.2.

Regarding G50A G67C G80U A91U C95U C125G G133C U148A, the “polymerase ribozyme fitness (log ratio)” value is at most -4.2.

A49G C75U C87A: the “polymerase ribozyme fitness (log ratio)” value was at most -4.2.

With G50A C75U C87U C103G A119C, the “polymerase ribozyme fitness (log ratio)” value is at most -4.2.

In the case of G50A C76G C96G C99A A110U A137G, the “polymerase ribozyme fitness (log ratio)” value was at most -4.2.

With A49C A66C, the “polymerase ribozyme fitness (log ratio)” value was at most -4.2.

For the variant A49C A66G, the “polymerase ribozyme fitness (log ratio)” value is at most -4.2.

On to A49C A66U, for which the “polymerase ribozyme fitness (log ratio)” value is at most -4.2.

Take G50A U56G G80U C132G: the “polymerase ribozyme fitness (log ratio)” value is at most -4.2.

For the variant G50A C79U G80U U139C, the “polymerase ribozyme fitness (log ratio)” value is at most -4.2.

Regarding A49G C79G, the “polymerase ribozyme fitness (log ratio)” value is at most -4.2.

Turning to G50A U55A G83A C85G, the “polymerase ribozyme fitness (log ratio)” value is at most -4.2.

A49U A89G C93G A137U: the “polymerase ribozyme fitness (log ratio)” value is at most -4.2.

Regarding A49U G59A C85A, the “polymerase ribozyme fitness (log ratio)” value is -3.41.

Take G50A C57U A73G G84U U104G: the “polymerase ribozyme fitness (log ratio)” value is at most -4.2.

In the case of A49U U53A U55A C76U A91U C93G C116G A122U C129G G141U C149G, the “polymerase ribozyme fitness (log ratio)” value is at most -4.2.

For the variant A49C A52U U53A A60C C63U C87A C93A C99U A137U A138C, the “polymerase ribozyme fitness (log ratio)” value was at most -4.2.

Consider G50A G92C C108U, for which the “polymerase ribozyme fitness (log ratio)” value is at most -4.2.

As for A49U A52G U78A A97G C99G, the “polymerase ribozyme fitness (log ratio)” value was at most -4.2.

On to A49C A52U A60G G94A A97G, for which the “polymerase ribozyme fitness (log ratio)” value was -3.63.

Take G50A U55G C87U: the “polymerase ribozyme fitness (log ratio)” value is -1.24.

Turning to A49G U53A C93A U127G G143A, the “polymerase ribozyme fitness (log ratio)” value is at most -4.2.

On to A49G U56A A60C G81A G128C U146G, for which the “polymerase ribozyme fitness (log ratio)” value is at most -4.2.

Consider G48U U146G, for which the “polymerase ribozyme fitness (log ratio)” value is -1.42.

G48U G58C G81C C93A C129U: the “polymerase ribozyme fitness (log ratio)” value was at most -4.2.

Regarding A49C C75U C76G U90G A91U C103A C114G, the “polymerase ribozyme fitness (log ratio)” value was at most -4.2.

For A49C G81U G94A A115G, the “polymerase ribozyme fitness (log ratio)” value is at most -4.2.

In the case of A49C G65U G84U C96U A121U C125G, the “polymerase ribozyme fitness (log ratio)” value is at most -4.2.

A49C C85G G88A A97G C103G A106G A142G: the “polymerase ribozyme fitness (log ratio)” value is at most -4.2.

Regarding A49G C51A U53C C87G, the “polymerase ribozyme fitness (log ratio)” value was at most -4.2.

G50A G58C G83A A89G G117A: the “polymerase ribozyme fitness (log ratio)” value was at most -4.2.

With G50A U55G A97G U102G, the “polymerase ribozyme fitness (log ratio)” value was -3.43.

On to A49C G59C A89U, for which the “polymerase ribozyme fitness (log ratio)” value was at most -4.2.

Turning to A49G C63A G71U G83U A122U A150U, the “polymerase ribozyme fitness (log ratio)” value is at most -4.2.

For the variant A49U G50C U90G A106G G128U, the “polymerase ribozyme fitness (log ratio)” value is at most -4.2.

For G50A C51U U53A G133C G143A, the “polymerase ribozyme fitness (log ratio)” value is at most -4.2.

With G48U C57U G117A G124A G141C, the “polymerase ribozyme fitness (log ratio)” value was at most -4.2.

Consider A49C C103A G141C, for which the “polymerase ribozyme fitness (log ratio)” value was at most -4.2.

Take A49U G70U C96G: the “polymerase ribozyme fitness (log ratio)” value is at most -4.2.

As for A49U C51U A147C, the “polymerase ribozyme fitness (log ratio)” value was -0.373.

Consider A49C A52G G83C A119G A121U, for which the “polymerase ribozyme fitness (log ratio)” value was at most -4.2.

G50A A73U C87A U144A: the “polymerase ribozyme fitness (log ratio)” value was at most -4.2.

Take G48U C54A C87U A106C U148C: the “polymerase ribozyme fitness (log ratio)” value was at most -4.2.

A49U C69U: the “polymerase ribozyme fitness (log ratio)” value is -1.86.

As for G50A A64G A122C G128C G143C, the “polymerase ribozyme fitness (log ratio)” value was at most -4.2.

Regarding A49C C63A G65C C72G G84U U145A, the “polymerase ribozyme fitness (log ratio)” value is at most -4.2.

G48U U53A G67C G71U C85U A91C C125U: the “polymerase ribozyme fitness (log ratio)” value is at most -4.2.

As to G50A G92C A97G C108G A120G U134G, the “polymerase ribozyme fitness (log ratio)” value was at most -4.2.
